Results are given in words; binding and its absence hold for the method and conditions named. Binding seen in cells or lysates may run through a third protein. Some binding calls cover weakened binding; strength is not graded here. Each block holds one substance with its values, some of them ahead of it.
Columns and labels:
[1] = biological target: GFP-WT CXCR4 (wild-type human CXCR4 with an N-terminal GFP fusion) (human) (UniProt P61073); test: co-IP; HeLa cells with SDF-1/CXCL12 (25 ng/ml, 37°C) for 10 and 30 min; anti-GFP IP of GFP-CXCR4, blot with anti-FLAG for β-Arrestin 1
[2] = biological target: GFP-WHIM CXCR4 (WHIM R334X mutant CXCR4 lacking the 19 carboxy-terminal residues, with an N-terminal GFP fusion) (human) (UniProt P61073); test: as above
[3] = biological target: GFP-WT CXCR4 (wild-type human CXCR4 with an N-terminal GFP fusion) (human) (UniProt P61073); test: co-IP; HeLa cells with SDF-1/CXCL12 (25 ng/ml, 37°C) for 5 or 10 min; lysis in 1% Triton X-100, 150 mM NaCl, 50 mM Tris-HCl pH 7.5; anti-GFP IP of GFP-CXCR4, blot with anti-FLAG for β-Arrestin 2
[4] = biological target: GFP-WHIM CXCR4 (WHIM R334X mutant CXCR4 lacking the 19 carboxy-terminal residues, with an N-terminal GFP fusion) (human) (UniProt P61073); test: as above
[5] = biological target: GFP-WHIM CXCR4 (WHIM R334X mutant CXCR4 lacking the 19 carboxy-terminal residues, with an N-terminal GFP fusion) (human) (UniProt P61073); test: condition: only 10 min with SDF-1/CXCL12 (25 ng/ml); co-IP; HeLa cells with SDF-1/CXCL12 (25 ng/ml, 37°C) for 5 or 10 min; lysis in 1% Triton X-100, 150 mM NaCl, 50 mM Tris-HCl pH 7.5; anti-GFP IP of GFP-CXCR4, blot with anti-FLAG for β-Arrestin 2
[6] = biological target: GFP-WHIM CXCR4 (WHIM R334X mutant CXCR4 lacking the 19 carboxy-terminal residues, with an N-terminal GFP fusion) (human) (UniProt P61073); test: co-IP; as a1, but cells with SDF-1/CXCL12 (25 ng/ml, 37°C) for 30 min before lysis; anti-GFP IP, blot for FLAG-β-Arrestin 2
[7] = biological target: GFP-WT CXCR4 (wild-type human CXCR4 with an N-terminal GFP fusion) (human) (UniProt P61073); test: co-IP; as a1, but cells without SDF-1/CXCL12; anti-GFP IP, blot for FLAG-β-Arrestin 2
[8] = biological target: GFP-WHIM CXCR4 (WHIM R334X mutant CXCR4 lacking the 19 carboxy-terminal residues, with an N-terminal GFP fusion) (human) (UniProt P61073); test: as above
[9] = biological target: GFP-WT CXCR4 (wild-type human CXCR4 with an N-terminal GFP fusion) (human) (UniProt P61073); test: co-IP; HeLa cells with SDF-1/CXCL12 (25 ng/ml, 37°C; 10 min in the text, 30 min in the legend); anti-GFP IP of GFP-CXCR4, blot for endogenous Grk6 or Grk3
[10] = biological target: GFP-WHIM CXCR4 (WHIM R334X mutant CXCR4 lacking the 19 carboxy-terminal residues, with an N-terminal GFP fusion) (human) (UniProt P61073); test: as above

Sequences of proteins named here, by UniProt entry; tags and fusion partners are left off. A change or cut given only in a name is not applied to a line headed by its entry. Residues count along the entry.
UniProt P61073: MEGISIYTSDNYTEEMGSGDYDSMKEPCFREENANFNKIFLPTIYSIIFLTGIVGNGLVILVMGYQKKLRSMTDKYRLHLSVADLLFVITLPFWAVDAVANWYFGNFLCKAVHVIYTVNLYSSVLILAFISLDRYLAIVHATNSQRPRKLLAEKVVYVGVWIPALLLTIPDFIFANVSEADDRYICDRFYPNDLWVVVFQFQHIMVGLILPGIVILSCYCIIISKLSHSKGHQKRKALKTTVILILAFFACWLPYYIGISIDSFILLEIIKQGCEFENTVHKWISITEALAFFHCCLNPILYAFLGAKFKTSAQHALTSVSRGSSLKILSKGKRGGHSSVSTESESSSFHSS
GFP-WHIM CXCR4 (WHIM R334X mutant CXCR4 lacking the 19 carboxy-terminal residues, with an N-terminal GFP fusion): residues 1-333 of P61073
UniProt P29066: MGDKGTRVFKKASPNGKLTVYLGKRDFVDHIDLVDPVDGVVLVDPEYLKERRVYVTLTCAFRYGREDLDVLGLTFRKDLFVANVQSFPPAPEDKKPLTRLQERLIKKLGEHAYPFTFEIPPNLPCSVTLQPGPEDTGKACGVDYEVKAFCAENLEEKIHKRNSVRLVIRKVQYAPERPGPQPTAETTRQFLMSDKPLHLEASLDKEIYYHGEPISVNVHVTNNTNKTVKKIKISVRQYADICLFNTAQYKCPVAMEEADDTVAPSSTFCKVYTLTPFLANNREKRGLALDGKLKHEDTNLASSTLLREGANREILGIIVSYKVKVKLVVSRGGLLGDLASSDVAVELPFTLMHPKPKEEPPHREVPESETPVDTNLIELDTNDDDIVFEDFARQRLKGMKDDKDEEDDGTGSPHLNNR
UniProt P29067: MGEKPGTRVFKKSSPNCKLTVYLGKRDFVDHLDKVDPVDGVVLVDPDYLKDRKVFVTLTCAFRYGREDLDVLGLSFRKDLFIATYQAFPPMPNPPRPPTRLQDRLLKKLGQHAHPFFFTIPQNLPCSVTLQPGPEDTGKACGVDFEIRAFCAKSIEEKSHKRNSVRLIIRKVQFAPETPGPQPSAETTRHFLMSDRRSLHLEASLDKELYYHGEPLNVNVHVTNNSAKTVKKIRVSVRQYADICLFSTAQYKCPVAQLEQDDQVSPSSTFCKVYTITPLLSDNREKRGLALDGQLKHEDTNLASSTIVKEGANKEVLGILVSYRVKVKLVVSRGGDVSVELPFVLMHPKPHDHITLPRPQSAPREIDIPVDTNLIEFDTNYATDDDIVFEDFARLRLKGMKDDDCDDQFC
UniProt P35626: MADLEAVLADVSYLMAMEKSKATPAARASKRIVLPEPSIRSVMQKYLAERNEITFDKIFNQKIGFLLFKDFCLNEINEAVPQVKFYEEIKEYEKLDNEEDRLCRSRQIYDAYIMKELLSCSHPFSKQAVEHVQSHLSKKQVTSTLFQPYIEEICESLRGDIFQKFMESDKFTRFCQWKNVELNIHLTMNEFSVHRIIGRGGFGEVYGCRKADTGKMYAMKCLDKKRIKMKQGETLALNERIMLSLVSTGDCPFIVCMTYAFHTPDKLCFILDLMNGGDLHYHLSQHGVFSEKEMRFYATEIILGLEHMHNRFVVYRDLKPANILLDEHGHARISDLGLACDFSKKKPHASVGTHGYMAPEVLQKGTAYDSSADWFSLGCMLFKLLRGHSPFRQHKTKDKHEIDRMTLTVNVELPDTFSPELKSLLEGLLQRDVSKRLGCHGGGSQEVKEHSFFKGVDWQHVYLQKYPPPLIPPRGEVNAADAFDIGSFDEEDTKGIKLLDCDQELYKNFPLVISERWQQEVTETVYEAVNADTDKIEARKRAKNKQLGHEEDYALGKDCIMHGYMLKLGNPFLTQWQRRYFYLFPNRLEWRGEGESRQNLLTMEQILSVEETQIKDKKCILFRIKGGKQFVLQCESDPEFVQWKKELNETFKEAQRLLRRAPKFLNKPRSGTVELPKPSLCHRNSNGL
UniProt P43250: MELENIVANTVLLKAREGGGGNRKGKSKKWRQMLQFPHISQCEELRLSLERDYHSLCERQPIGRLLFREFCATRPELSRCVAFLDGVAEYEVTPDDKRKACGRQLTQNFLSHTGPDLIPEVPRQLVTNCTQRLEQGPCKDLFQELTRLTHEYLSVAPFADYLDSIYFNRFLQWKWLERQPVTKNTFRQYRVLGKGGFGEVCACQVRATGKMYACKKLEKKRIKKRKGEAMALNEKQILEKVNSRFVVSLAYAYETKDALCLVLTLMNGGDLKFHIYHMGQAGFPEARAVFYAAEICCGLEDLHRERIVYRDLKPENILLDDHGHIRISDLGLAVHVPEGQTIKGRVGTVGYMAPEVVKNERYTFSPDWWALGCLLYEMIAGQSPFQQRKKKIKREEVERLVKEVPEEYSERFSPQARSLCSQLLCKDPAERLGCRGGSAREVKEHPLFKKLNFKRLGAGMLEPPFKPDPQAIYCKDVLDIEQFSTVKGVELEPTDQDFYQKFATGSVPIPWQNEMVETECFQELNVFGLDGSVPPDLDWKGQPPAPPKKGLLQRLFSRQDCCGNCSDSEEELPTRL

binding [1]: binds
binding [2]: binds
Substance: FLAG-tagged β-Arrestin 1 (from UniProt P29066 1-418)

binding [3]: binds
binding [4]: binds weakly
binding [5]: no binding
binding [6]: binds
Substance: FLAG-tagged β-Arrestin 2 (from UniProt P29067 1-410)
binding [7]: no binding (condition: cells without SDF-1/CXCL12)
binding [8]: no binding (condition: cells without SDF-1/CXCL12)

binding [9]: binds
binding [10]: binds
Substance: Grk3 (G protein-coupled receptor kinase 3) (from UniProt P35626 1-688) (enzyme)

binding [9]: binds
binding [10]: no binding
Substance: Grk6 (G protein-coupled receptor kinase 6) (from UniProt P43250 1-576) (enzyme)
